This note sets out measurements from the antibiotic and cytotoxicity screens of Wong et al. (2023).

One assay concerns HSkMC. Briefly: cytotoxicity call (relative viability < 0.9). Particulars: 10 µM.
A further assay concerns HepG2. Briefly: cytotoxicity call (relative viability < 0.9). The settings on record: 10 µM.
The test system of the next assay is S. aureus RN4220. As to the kind of experiment: growth inhibition call (relative growth <= 0.2). The settings on record: 50 µM.

Some of the results follow.

As to `C[C@H](CO)N1C[C@H](C)[C@@H](CN(C)Cc2ccc(Oc3ccccc3)cc2)Oc2c(NC(=O)Nc3ccc(C(F)(F)F)cc3)cccc2C1=O`, the cytotoxicity call with HSkMC is “active”. Further, the cytotoxicity call with HepG2 was “inactive”. Further, the growth inhibition call with S. aureus RN4220 was “inactive”.

Consider `CO[C@@H]1CN(C)C(=O)c2cc(NC(=O)Nc3ccccc3)ccc2OC[C@@H](C)N(C(=O)CN(C)C)C[C@H]1C`, for which the cytotoxicity call in the assay with HSkMC and with HepG2 was “inactive” in each case. In the assay with S. aureus RN4220, the growth inhibition call was “inactive”.

On to `C[C@H]1CN([C@@H](C)CO)S(=O)(=O)c2ccc(C#CC(C)(C)O)cc2O[C@@H]1CN(C)Cc1ccccc1`, for which the cytotoxicity call in the assay with HSkMC and in the assay with HepG2 was “inactive” in each case. Also, the growth inhibition call with S. aureus RN4220 is “inactive”.

For `C[C@H]1CN([C@@H](C)CO)C(=O)c2cc(NC(=O)Cn3cnnn3)ccc2O[C@H]1CN(C)C(=O)Nc1ccccc1`, the cytotoxicity call in the assay with HSkMC was “inactive”. The cytotoxicity call in the assay on HepG2 was “active”. In addition, in the assay on S. aureus RN4220, the growth inhibition call was “inactive”.

For `O=c1ncccn1[C@@H]1O[C@H](CO)[C@@H](O)[C@H]1O`, the cytotoxicity call in the assay with HSkMC and in the assay with HepG2 was “inactive” in each case. Further, the growth inhibition call in the assay on S. aureus RN4220 was “inactive”.

Turning to `COc1ccc(NC(=O)N(C)C[C@@H]2OCc3cn(nn3)CCCC(=O)N([C@H](C)CO)C[C@@H]2C)c(OC)c1`, the cytotoxicity call with HSkMC and in the assay on HepG2 was “inactive” each time. Besides, the growth inhibition call in the assay with S. aureus RN4220 is “inactive”.

For `C[C@@H]1CN([C@H](C)CO)C(=O)c2cc(NC(=O)CCCN(C)C)ccc2O[C@@H]1CN(C)Cc1ccc(Oc2ccccc2)cc1`, the cytotoxicity call in the assay on HSkMC is “inactive”. For the same molecule, the cytotoxicity call with HepG2 was “active”. In the assay on S. aureus RN4220, the growth inhibition call is “inactive”.

Consider `COc1cccc(S(=O)(=O)N(C)C[C@H]2Oc3cc(C4=CCCC4)ccc3S(=O)(=O)N([C@@H](C)CO)C[C@@H]2C)c1`, for which the cytotoxicity call in the assay on HSkMC and with HepG2 was “inactive” in each case. Moreover, the growth inhibition call in the assay on S. aureus RN4220 was “inactive”.

As for `C[C@H]1CN([C@@H](C)CO)S(=O)(=O)c2ccc(C#CC(C)(C)O)cc2O[C@@H]1CN(C)C(=O)CN(C)C`, the cytotoxicity call in the assay with HSkMC and with HepG2 was “inactive” each time. Besides, the growth inhibition call with S. aureus RN4220 is “inactive”.

In the case of `Cc1ccc(S(=O)(=O)N2C[C@@H](O)COC[C@H]3O[C@H](CC(=O)N[C@@H]4CCN(Cc5ccccc5)C4)CC[C@@H]32)cc1`, the cytotoxicity call in the assay on HSkMC and in the assay on HepG2 was “inactive” in each case. The growth inhibition call in the assay on S. aureus RN4220 was “inactive”.

For `COCCNC(=O)C[C@@H]1C[C@@H]2c3cc(NC(=O)COC)ccc3O[C@@H]2[C@H](CO)O1`, the cytotoxicity call in the assay with HSkMC and with HepG2 was “inactive” in each case. Further, the growth inhibition call in the assay with S. aureus RN4220 is “inactive”.

With `COc1ccc(CN(C)C[C@@H]2OCCCC[C@@H](C)Oc3ccc(NC(=O)c4ccncc4)cc3C(=O)N([C@H](C)CO)C[C@@H]2C)cc1`, the cytotoxicity call with HSkMC and with HepG2 was “inactive” throughout. The growth inhibition call in the assay with S. aureus RN4220 is “inactive”.

In the case of `CS(=O)(=O)N1CCN2C[C@H](C(=O)O)CN(Cc3ccoc3)C[C@@H]2C1`, the cytotoxicity call in the assay with HSkMC and with HepG2 was “inactive” throughout. In addition, in the assay on S. aureus RN4220, the growth inhibition call was “inactive”.

As for `CC(C)NC(=O)Nc1cccc2c1O[C@H](CN(C)Cc1ccc(Oc3ccccc3)cc1)[C@H](C)CN([C@@H](C)CO)C2=O`, the cytotoxicity call in the assay on HSkMC and in the assay on HepG2 was “inactive” each time. Moreover, in the assay on S. aureus RN4220, the growth inhibition call is “inactive”.

Take `COc1ccc(NC(=O)Nc2ccc3c(c2)CC(=O)N([C@@H](C)CO)C[C@H](C)[C@H](CN(C)S(=O)(=O)c2cn(C)cn2)O3)cc1`: the cytotoxicity call with HSkMC and with HepG2 was “inactive” in each case. Further, in the assay with S. aureus RN4220, the growth inhibition call was “inactive”.

Take `C[C@@H]1CCCCO[C@H](CN(C)C(=O)CCCN(C)C)[C@@H](C)CN([C@H](C)CO)C(=O)c2cc(NC(=O)Nc3ccc(C(F)(F)F)cc3)ccc2O1`: the cytotoxicity call in the assay on HSkMC and in the assay with HepG2 was “inactive” in each case. In addition, in the assay with S. aureus RN4220, the growth inhibition call is “inactive”.

On to `COc1ccc(S(=O)(=O)N(C)C[C@@H]2Oc3c(NC(=O)Nc4cccc5ccccc45)cccc3C(=O)N([C@@H](C)CO)C[C@H]2C)cc1C`, for which the cytotoxicity call in the assay with HSkMC and in the assay with HepG2 was “inactive” each time. For the same molecule, in the assay with S. aureus RN4220, the growth inhibition call was “inactive”.

With `Oc1ccc([C@H]2Oc3cc(O[C@@H]4OC[C@H](O)[C@@H](O)[C@@H]4O)cc(O)c3C[C@@H]2O)cc1O`, the cytotoxicity call in the assay with HSkMC and in the assay with HepG2 was “inactive” each time. In addition, in the assay with S. aureus RN4220, the growth inhibition call was “inactive”.

Turning to `C[C@H](CO)N1C[C@H](C)[C@@H](CN(C)Cc2ccncc2)OCCCC[C@H](C)Oc2ccc(NC(=O)c3ccccc3)cc2C1=O`, the cytotoxicity call in the assay with HSkMC and in the assay on HepG2 was “inactive” in each case. For the same molecule, in the assay on S. aureus RN4220, the growth inhibition call was “inactive”.

For the molecule `C[C@@H]1CCCCO[C@H](CN(C)Cc2ccc(Cl)c(Cl)c2)[C@H](C)CN([C@@H](C)CO)C(=O)c2cc(NS(=O)(=O)c3ccc(F)cc3)ccc2O1`, the cytotoxicity call in the assay with HSkMC and in the assay with HepG2 was “active” in each case. Moreover, in the assay on S. aureus RN4220, the growth inhibition call was “inactive”.

For the molecule `COc1ccc(OCc2c(-c3ccccc3)nnn2CC(=O)NS(=O)(=O)c2ccc(F)cc2F)cc1`, the cytotoxicity call in the assay with HSkMC and in the assay on HepG2 was “inactive” throughout. Besides, the growth inhibition call in the assay on S. aureus RN4220 is “inactive”.

As for `CC(C)NC(=O)N(C)C[C@H]1Oc2c(NS(=O)(=O)c3ccc(Cl)cc3)cccc2C(=O)N([C@H](C)CO)C[C@H]1C`, the cytotoxicity call with HSkMC and with HepG2 was “inactive” each time. Besides, in the assay with S. aureus RN4220, the growth inhibition call was “inactive”.

Consider `Nc1ccn([C@H]2O[C@@H](CO)[C@@H](O)[C@@H]2O)c(=O)n1`, for which the cytotoxicity call in the assay on HSkMC and with HepG2 was “inactive” in each case. Also, the growth inhibition call with S. aureus RN4220 was “inactive”.

For the molecule `C[C@H]1CN([C@@H](C)CO)C(=O)c2cccc(NC(=O)c3ccc(-c4nccs4)cc3)c2O[C@@H]1CN(C)C(=O)Nc1ccc(C(F)(F)F)cc1`, the cytotoxicity call in the assay on HSkMC (human skeletal muscle cells) and in the assay on HepG2 was “inactive” each time. The growth inhibition call in the assay on S. aureus RN4220 is “inactive”.

`CCCN(C)C[C@@H]1Oc2cc(C#Cc3cccc(OC)c3)ccc2S(=O)(=O)N([C@H](C)CO)C[C@@H]1C`: the cytotoxicity call in the assay with HSkMC and with HepG2 was “inactive” each time. Moreover, the growth inhibition call in the assay with S. aureus RN4220 is “inactive”.

Take `C[C@H]1CCCCO[C@@H](CN(C)C(=O)CCCN(C)C)[C@@H](C)CN([C@@H](C)CO)C(=O)c2cc(NS(C)(=O)=O)ccc2O1`: the cytotoxicity call in the assay with HSkMC and in the assay on HepG2 was “inactive” each time. The growth inhibition call with S. aureus RN4220 is “inactive”.
